Source: the supplement of paper PMC12889115
Some of the results follow. Cut-off read from the data, not from the text of the source: active = 25% or less and inactive = the rest. Single values are uncertain, as repeats are few or missing.

How the values were obtained:
[1] = test system: Salmonella enterica serovar Typhimurium SL1344; assay: bacterial growth OD600 after 18 h in MHB with 0.5 µg/mL polymyxin B; higher = more bacterial growth (less inhibition); settings: 25 µM; polymyxin B 0.5 µg/mL; system: broth
Method: (§1)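 Secondary screen of the 553 primary hits at 25 µM. (i) S. Typhimurium SL1344 grown in Mueller-Hinton broth with 0.5 µg/mL polymyxin B, OD600 read after 18 h. (ii) SAFIRE assay: RAW 264.7 macrophages infected with S. Typhimurium sifB::gfp (MOI 30); compound added 2 h post-infection; cells fixed at 18 h; GFP-positive pixel fraction per macrophage imaged by confocal microscopy and expressed as % of DMSO control.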

[2] = test system: Salmonella enterica serovar Typhimurium SL1344; assay: intramacrophage bacterial GFP load (SAFIRE), percent of DMSO control (% of DMSO); higher = more intracellular bacteria (less inhibition); settings: 25 µM; system: infected RAW 264.7 macrophages
Method: as §1
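Throughout, for bacterial growth OD600 after 18 h in MHB with 0.5 µg/mL polymyxin B: polymyxin B level opens the outer membrane while sparing the inner membrane, with novobiocin wells as reference growth inhibitor.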
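Throughout, for intramacrophage bacterial GFP load (SAFIRE), percent of DMSO control: compounds tested were the hits of an earlier 50 µM broth growth screen of a drug-like diversity library run with polymyxin B.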

Compound | bacterial growth OD600 [1] | intramacrophage bacterial GFP load [2]
O=C(CC(c1ccccc1)c1ccc2c(c1)OCO2)N1CCCO1 (stereo not drawn) | 0.566 | inactive: 131
O=C1N(Cc2cccc(Cl)c2)C[C@@H]2C[C@@H](c3cccc4cnccc34)N3CCC[C@@]123 | 0.001 | inactive: 45.9
COc1ccc(CN2Cc3cc(C)ccc3OC(c3ccsc3)C2)cc1O (stereo not drawn) | -0.006 | inactive: 41.4
CCOC(=O)C1(CCCc2ccccc2)CCN(C(=O)C2CC23CCC3)CC1 (stereo not drawn) | -0.001 | inactive: 42.9
CC(C)Oc1ccc(C(=O)N2CCC(CO)(Cc3ccc(Cl)cc3)CC2)cc1 | -0.002 | inactive: 151
COc1ccccc1C1(CC(=O)N2CCCC2c2ccc(F)cc2)CC(=O)N(C2CCCC2)C1=O (stereo not drawn) | -0.019 | inactive: 79.3
Cc1cccc(C(=O)N2CCCC(C(=O)c3cccc4ccccc34)C2)c1 (stereo not drawn) | 0.001 | inactive: 106
CN(Cc1cccc(C(F)(F)F)c1)C(=O)c1ccc2nc(C3CC3)oc2c1 | 0.003 | inactive: 89.4
COc1cccc(-c2ccccc2NC(=O)C2CCN(Cc3ccccc3)CC2)c1 | -0.008 | active: 0.114
Fc1ccc(-c2cnnc(NCc3cccc(OC(F)(F)F)c3)n2)cc1 | 0.006 | inactive: 88
Cc1cc2c(c(-c3cnccn3)c1)OC(CNC(=O)/C=C/c1cccs1)C2 (stereo not drawn) | 0.009 | inactive: 114
CCOC(=O)N1CCN(c2nncc(-c3ccc4ccccc4c3)n2)CC1 | -0.013 | inactive: 104
O=C(c1ccc(N2CCCC2=O)cc1)N(Cc1ccncc1)Cc1cccc(OCCc2ccc(F)cc2)c1 | -0.009 | inactive: 49.1
COc1ccc(CC2(CCC(=O)NC3CCCc4ccccc43)CCC(=O)N2)c2ccccc12 (stereo not drawn) | -0.002 | inactive: 78.7
